The values below come from PubChem BioAssay (NCI).

As a reminder, the TGI is the concentration at which net growth stops. A lower TGI goes with more potent growth arrest. One may read the GI50 as the concentration giving 50% growth inhibition.

The structures appear in SMILES notation.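 Each compound was tested at five concentrations against cells in 96-well plates for 48 hours. At the GI50, growth is halved. TGI: concentration producing complete growth inhibition.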

The test system of this test is NCI-H322M lung. Nature of the test: DTP human tumour cell line panel, 48 h.
`NCCCCNCCCNC(=O)c1nc(-c2nc(CCN)sc2Cl)sc1Cl` yielded a TGI above 100 µM.

Turning to `CN(C)CCNC(=O)c1cc(Cl)cc2ccc(-c3ccccc3)nc12`, the TGI was 14.7 µM.

As for `COC(=O)C1=C(C(=O)OC)SC(=CC#CC=C2SC(C(=O)OC)=C(C(=O)OC)S2)S1`, the TGI came to 33.4 µM.

Consider `Cc1ccc(-c2csc(NC(=O)CN3CCN(c4cc5c(cc4F)c(=O)c(C(=O)O)cn5C4CC4)CC3)n2)cc1`, for which the GI50 is 1.93 µM and the TGI is 9.95 µM.

As to `COc1ccc2[nH]c(O)c(C(=Nc3ccc(N(C)C(=O)CN4CCN(C)CC4)cc3)c3ccccc3)c2c1`, the GI50 was 1.91 µM and the TGI amounted to 9.12 µM.

As for `Cc1cccc(C)c1NC(=O)C1C(=O)N(c2c(C)cccc2C)C(=O)/C1=N\NC(N)=S` (centres undefined), the TGI was above 100 µM.

Consider `COc1ccc(C2=NN(C=O)C(c3cccc(Nc4ccnc5cc(Cl)ccc45)c3)C2)cc1` (centres undefined), for which the GI50 is 6.51 µM and the TGI was above 100 µM.

The molecule `O=C(/C=C/C(=O)N1CCCC1)N1CCCC1` returned a TGI above 100 µM.

Turning to `CN1CC[C@]2(C)c3ccc(O)cc3CC3CCCC1C32C` (some centres undefined), the TGI is above 100 µM.

`Cc1cc(C)c(C(=O)c2no[n+]([O-])c2C(=O)c2c(C)cc(C)c(Br)c2C)c(C)c1Br` came in with a TGI of 29.7 µM.

As for `c1cncc(CC2(c3cc4ccccc4[nH]3)OCCO2)c1`, the TGI is above 100 µM.

For the molecule `CCOC(=O)C1(C#N)C(c2ccccc2)CC(O)(c2ccc(Cl)cc2)C(C(=O)c2ccc(Cl)cc2)C1c1ccccc1` (centres undefined), the TGI was above 100 µM.

`COc1cc(C(=O)Oc2ccc3c(c2)OCO3)cc(OC)c1OC` returned a TGI above 100 µM.

Take `CCCOc1ccc2nc(NC(=O)OC)[nH]c2c1`: the GI50 was above 20 µM and the TGI is above 100 µM.

`COc1ccc(Nc2nc(N)c(C(=O)c3c[nH]c4ccccc34)s2)cc1` returned a TGI above 100 µM.

On to `COc1ccc(Cn2cc3c(c2)-c2oncc2CC3)cc1`, for which the GI50 was 5.84 µM and the TGI is above 100 µM.

Consider `COc1ccc(-c2ccc(-c3ccc(C(=N)N)cn3)o2)cc1`, for which the GI50 is 6 µM and the TGI stood at 19.3 µM.

The molecule `O=P(O)(O)c1ccccc1Oc1ccccc1` displayed a TGI above 100 µM.

The molecule `CCOC(=O)c1s/c(=N\Nc2nc3ccccc3cc2C2OCCO2)n(Cc2ccccc2)c1C` showed a TGI above 100 µM.

With `O=C(O)c1cccc2cccc(-c3cccc4cccc(C(=O)O)c34)c12`, the TGI was above 100 µM.

On to `COc1ccc(/C=c2\s/c(=C3/SC(=S)N(c4ccccc4)C3=O)n(-c3ccccc3)c2=O)cc1`, for which the TGI is above 100 µM.

In the case of `CN(C)c1ccc(/C=C(\NC(=O)c2ccccc2)c2nn(C)c(=O)o2)cc1`, the TGI is above 100 µM.

Regarding `Cc1cc(C)nc(NS(=O)(=O)c2ccc(Nc3c4ccccc4nc4c(C(=O)N5CCN(CCOS(C)(=O)=O)CC5)cccc34)cc2)n1`, the TGI is above 100 µM.

Consider `CS(=O)(=O)Nc1ccc2c(c1)N(S(C)(=O)=O)CC2CCl` (centres undefined), for which the TGI is above 100 µM.

Molecule `CCC(O)(Cc1ccc(OC)cc1)c1ccc(OC)cc1` (centres undefined) gave a TGI above 100 µM.

The molecule `O=[N+]([O-])c1cnn(C2=CNc3ccccc3N=C2)c1` came in with a TGI above 100 µM.

With `COc1ccc2c(c1)/C(=C\c1c(Cl)[nH]c3ccc(OC)cc13)C(=O)N2`, the GI50 is 34 µM and the TGI was above 100 µM.

As for `CC1C(=O)OCC2=CCN3CCC(OC(=O)C(C)C1(C)O)C23` (centres undefined), the TGI was above 100 µM.

For the molecule `COC(=O)Cc1ccc2c(cnn2-c2ccccc2)c1OC`, the TGI was above 10 µM.

Take `CCOC(=O)/C=C/C1=C(c2cccs2)c2ccccc2CC1`: the GI50 was 38.9 µM and the TGI was above 100 µM.

For `COc1cc(/C=C2\C(=O)Nc3ccc(N(C)C)cc32)cc(OC)c1OC`, the GI50 is 3.47 µM and the TGI was above 30.4 µM.

Take `N#CCCN(CCC#N)c1ccc(C(Sc2ccccc2)C(NC(=O)c2cc([N+](=O)[O-])ccc2Cl)C(=O)Sc2ccccc2)cc1` (centres undefined): the GI50 is 4.05 µM and the TGI was 20.3 µM.

Molecule `CCN(CC)C(=S)SC` displayed a TGI above 100 µM.

With `Cc1ccc2nc(-c3ccc(N(C)C)c(Br)c3)cn2c1`, the GI50 is above 100 µM and the TGI was above 100 µM.

For the molecule `C=C(C)OCOCCOC`, the TGI is above 100 µM.

`COc1ccc2cc(-c3c(-c4ccncc4)nc(-c4ccc(S(C)(=O)=O)cc4C)n3C)ccc2c1`: the GI50 was 15.6 µM and the TGI is above 25 µM.

Take `Cc1cc(Cl)ccc1Nc1nc(C(F)(F)F)ccc1C(=O)N/N=C/c1ccc([N+](=O)[O-])cc1`: the GI50 is 1.61 µM and the TGI turned out to be 7.71 µM.

As to `CN1C(=O)N(C)C2C1NN=c1s/c(=C\c3ccc(F)cc3)c(=O)n12` (centres undefined), the GI50 is 5.59 µM and the TGI is above 100 µM.

Turning to `COc1ccccc1CN=C1Nc2ccncc2S(=O)(=O)N1c1ccccc1`, the TGI was above 100 µM.

Regarding `O=c1nc2c(c(-c3ccc(Br)cc3)[nH]1)COC/C2=C\c1ccc(Br)cc1`, the TGI is above 50 µM.

Molecule `C/C(CCc1ccccc1)=N\NC(N)=S` displayed a TGI above 100 µM.

`CC(=O)NC(CCCCNC(=O)NCCCl)C(=O)NCc1ccccc1` (centres undefined) yielded a TGI above 100 µM.

In turn, `C/C=C(/C)C(=O)OC1CC(C)[C@H]2CC(=O)C(C)=C2CC1C(C)(C)OC(C)=O` (some centres undefined) showed a TGI above 100 µM.

With `CN(C)CC1CCC/C(=C\c2ccc(OC(=O)c3ccc(Cl)cc3)cc2)C1=O` (centres undefined), the TGI amounted to 12.5 µM. This counts as double-digit micromolar.

Molecule `O=S(=O)(c1cc(Cl)ccc1Cl)n1ccnc1` displayed a TGI above 100 µM.

On to `Cn1c(=O)c2c(nc3n(Cc4ccccc4)c(=O)c(NCCCBr)cn23)n(C)c1=O`, for which the TGI was above 100 µM.

`CCN(CC)C(=S)Oc1cc2oc(=O)cc(C)c2cc1Cl` came in with a TGI above 100 µM.

With `CC1=C(C(=O)Nc2cccc(Cl)c2)C(c2ccccc2F)C(C(=O)Nc2cccc(Cl)c2)=C(C)N1`, the TGI was 37.2 µM. This lies in the double-digit micromolar range.

On to `COc1cc(S(=O)(=O)Nc2ccc(C(=O)/C=C/c3ccc(O)cc3)cc2)ccc1F`, for which the GI50 was 51.8 µM and the TGI is above 100 µM.

As for `CNCCn1c(=O)c2cc(OC)c(OC)cc2c2ccc3cc4c(cc3c21)OCO4`, the GI50 is 0.169 µM and the concentration for total growth inhibition (TGI) is 1.4 µM.

As to `Cc1cccc(-n2c(=S)[nH]c3c(sc(=O)n3-c3ccccc3C)c2=O)c1`, the TGI was above 100 µM.

`Cc1[nH]c(=O)nc(NCCNCCO)c1C(=O)Nc1cccc2cc3ccccc3cc12` had a total growth inhibition concentration (TGI) above 100 µM.

`COC(=O)c1nc(Cl)nc(Cl)c1Cl` returned a TGI above 100 µM.

`COC(=O)c1ccccc1NC(=O)C(=O)NNC(=O)c1ccncc1` displayed a TGI above 100 µM.

`CC(CCC(=O)O)C(=O)O` (centres undefined) came in with a TGI above 100 µM.

The molecule `COc1cc(CC(C)NC(C)=O)cc(OC)c1` (centres undefined) gave a TGI above 100 µM.

Consider `O=C(O)c1ccc2c(c1)CCCC(c1ccc(Cl)cc1Cl)=C2c1ccc(O[C@H]2CCN(CCCF)C2)cc1`, for which the GI50 was 15.1 µM and the TGI is 30 µM.

Consider `CCOc1cccc(/C=N/NC(=O)C(=O)Nc2cccc(C(F)(F)F)c2)c1O`, for which the GI50 was 1.04 µM and the TGI worked out at 17 µM.

Molecule `c1ccc2c(c1)Sc1nccc3ccnc-2c13` came in with a TGI above 100 µM.

In the case of `CCn1c2ccc(O)cc2c2c(C)c3c[n+](C)ccc3c(C)c21`, the GI50 was 2.67 µM and the TGI amounted to 84.2 µM.

Consider `Cc1[nH]nc(C(=O)n2nc(N)c3ccccc32)c1[N+](=O)[O-]`, for which the GI50 was above 100 µM and the TGI is above 100 µM.

In the case of `C=C1C(=O)O[C@H]2[C@H]1CC/C(COC(=O)c1cc3cc(Cl)ccc3[nH]1)=C\CC[C@@]1(C)O[C@@H]21`, the GI50 is 4 µM and the TGI came to 16.4 µM.

In the case of `COc1ccc(/C=C2\CCCC(C(NO)c3ccc(OC)cc3)C2=NO)cc1` (centres undefined), the TGI is above 100 µM.

`CC[C@H](Nc1nc(C)nc(N)c1C#N)c1nc2cccc(NCc3ccc(C(=O)NO)cc3)c2c(=O)n1-c1ccccc1`: the GI50 is 1.93 µM and the TGI is 6.83 µM.

For `CCCCCCCCCCCCCCCCCC1=NCCN1C(=O)OCCO`, the GI50 is 3.32 µM and the TGI came out at 13.1 µM.

In turn, `CSC(SC)=C(C(=O)O)P(=O)(O)O` came in with a TGI above 100 µM.

Molecule `C=C1N(C=O)C(C)(C)N(O)C1(C)C` gave a TGI above 100 µM.

Take `NC(=O)c1cc2c3ccccc3ccn2c1-c1ccccc1`: the GI50 was 0.556 µM and the TGI is 27.2 µM.

`CC(C)(C)OC(=O)NC(Cc1ccccc1)NC(=O)NC(=O)OCc1ccccc1` (centres undefined) gave a TGI above 100 µM.

As for `CCC(CO)Nc1nc(NCc2ccccc2)c2ncn(C(C)C)c2n1` (centres undefined), the TGI is above 100 µM.

`Nc1nc(Cl)cc(NCC2(O)CC2)n1`: the TGI is above 100 µM.

For the molecule `O=C1C=CC=C/C1=C1\N=C(c2ccccc2OCC(=O)c2ccccc2)SS1`, the TGI is above 100 µM.

For `O=C(N/N=C(/CCN1CCCC1)CC(c1ccccc1)c1c(O)c2ccccc2oc1=O)c1ccncc1` (centres undefined), the TGI is above 100 µM.

As to `Nc1ccccc1C#C/C=C\C#Cc1ccccc1[N+](=O)[O-]`, the GI50 was 24.9 µM and the TGI turned out to be 74.4 µM.

In turn, `CC1C(NNc2ccccc2)Oc2cc3c(cc2C1c1ccccc1O)OCO3` (centres undefined) yielded a TGI of 19.7 µM.

For `C/C=C/C=C/C=C/C=C/C(=O)O`, the TGI was above 100 µM.

Turning to `COc1cc2c(=O)n(CCN)c3c4cc5c(cc4ccc3c2cc1OC)OCO5`, the GI50 is 1.06 µM and the TGI is 2.6 µM.

Consider `CC1CCC2(NC1)OC1CC3C4CC=C5CC(OC6OC(CO)C(OC7OC(C)C(O)C(O)C7O)C(O)C6OC6OC(C)C(O)C(O)C6O)CCC5(C)C4CCC3(C)C1C2C` (centres undefined), for which the TGI is 4.98 µM.

The molecule `CC(C)c1cccc(C(C)C)c1NC(=O)/C(CC(=O)CC(c1ccccc1)c1c(O)c2ccccc2oc1=O)=N/O` (centres undefined) displayed a TGI above 100 µM.

Regarding `O=[N+]([O-])c1ccc(NC(=S)N=Nc2c(O)[nH]c3ccc([N+](=O)[O-])cc23)cc1`, the TGI turned out to be 65.5 µM.

In the case of `C=C1OC(c2ccccc2NC)=NC12CCCCC2`, the TGI was above 100 µM.

For `NC(N)=NCCC1OC(=O)C2=C1c1c(O)ccc3nccc(c13)O2` (centres undefined), the GI50 is above 100 µM and the TGI is above 100 µM.

`CN(C)/N=C(/c1nc2ccc(Cl)cc2[nH]c1=O)C(O)c1ccc(C(O)/C(=N\N(C)C)c2nc3ccc(Cl)cc3[nH]c2=O)cc1` (centres undefined) returned a TGI above 100 µM.

Take `CC1(C)OCC2OC3([C@@H]4OC(C)(C)O[C@H]4CO)OC(C)(C)OC3C2O1` (some centres undefined): the TGI was above 100 µM.

As to `COc1ccccc1/C=C/C(=O)c1ccccc1`, the GI50 is 19 µM and the total growth inhibition concentration (TGI) is 38.3 µM.

As to `CCC1=C(C(C)=O)[C@@H]2CCCCC[C@@H](C(=O)OC)C2C1=O` (some centres undefined), the TGI was above 100 µM.
